Results reported in PubChem BioAssay AID504832 (National Center for Advancing Translational Sciences (NCATS), 2011).
Hit rate of the full screen: of about 310,000 compounds, about 18,000 (5.8%) were called active. The inconclusive results got no clear call from the source; some entries with a clear call stand among them for comparison. Calls come from the whole dose curve; as a rule, active = well fitted inhibition curve with a large enough effect; inconclusive = small, poorly fitted or top-dose-only effect, or another doubt; inactive = no such curve, though single readings can be large or run the other way. Potencies of inconclusive entries are left out as doubtful fits.

Assay: Primary qHTS for delayed death inhibitors of the malarial parasite plastid, 48 hour incubation
Details: P. falciparum luciferase growth in erythrocytes; series mostly up to 28.7 µM; activity change, negative = inhibition: at the top concentration
How it was run: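 Luminescence readout; reporter = integrated firefly luciferase in P. falciparum. RBC culture at 2% hematocrit, 0.1% parasitemia final, 37 C/5% CO2; decreased signal taken as growth inhibition.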
% is set by controls: 0 for no effect and ±100 for the full control effect; potency is the fitted concentration of half-maximal effect; tags give direction and shape of the fitted curve.

SMILES | Potency | activity change, negative = inhibition
Cc1ccc(-c2nn(-c3ccccc3)cc2C(=O)NCC2CCCO2)cc1 (stereo not drawn) | inconclusive [inhibitor, single point] | –
Cc1cccc(-c2ccc(NC(=O)C3CCN(CC4CC4)CC3)cc2)c1 | inconclusive [inhibitor, partial curve, poor fit] | –
CCCC(=O)Nc1ccc(-c2csc(-c3cccnc3)n2)cc1 | – | inactive: -20%
CC(NC(=O)c1cc(=O)[nH]c2ccccc12)c1ccc(F)cc1F (stereo not drawn) | – | inactive: -8.85%
c1ccc2c(c1)OCCOCCOCCOCCOCCOc1ccccc1OCCOCCOCCO2 | inconclusive [inhibitor, partial curve] | –
O=C(c1cn(Cc2ccccc2)nc1-c1ccc(Cl)cc1)N1CCN(c2ccccn2)CC1 | active: 13.1 µM | –
CN1CCN(c2nc(-c3ccc(Cl)cc3Cl)nc3ccccc23)CC1 | inconclusive [inhibitor, single point] | –
C=CCOc1ccc(/C=N/N2C(=O)C(CC(=O)Nc3ccc(F)cc3F)SC2=NC)cc1 (stereo not drawn) | inconclusive [inhibitor, single point] | –
Cc1ccc(C2(c3ccccc3)NC(=O)N(CC(=O)NC3CCCCC3)C2=O)cc1C (stereo not drawn) | inconclusive [inhibitor, partial curve, poor fit] | –
Cc1ccc(NC(=S)N2CCSC2c2cccs2)cc1 (stereo not drawn) | – | inactive: 12.6%
Cc1cc(C2=NNC(=NC3CCCCC3)SC2)c(C)n1-c1c(C)n(C)n(-c2ccccc2)c1=O | active: 6.57 µM | –
Cn1c(SCC(=O)NCc2cccs2)nnc1-c1ccc(S(=O)(=O)N2CCCC2)cc1 | inconclusive [inhibitor, partial curve] | –
Cc1cc(S(=O)(=O)N(Cc2cccs2)Cc2ccccc2F)ccc1-n1cnnn1 | inconclusive [inhibitor, partial curve] | –
CC(=O)Nc1ccccc1NC(=O)c1cc(C)ccc1C | – | inactive: -6.27%
Cc1ccc(C(=O)NCC2CCCN2S(=O)(=O)c2ccc(C)cc2)cc1 (stereo not drawn) | inconclusive [inhibitor, single point] | –
COc1ccc(-c2cc(C(=O)Nc3cccnc3Cl)no2)cc1OC | – | inactive: 10.9%
COc1ccc(C)c2sc(N(CCN(C)C)C(=O)c3ccc4ccccc4c3)nc12 | inconclusive [inhibitor, single point] | –
CC[n+]1c(/C=C/c2ccc(N(C)C)cc2)ccc2ccccc21 | active: 0.657 µM | –
Cc1[nH]c2ccc(OC(F)(F)F)cc2c1CCNCc1ccc(Cl)cc1 | inconclusive [inhibitor, single point] | –
c1ccc2c(CSc3nnc(-c4ccncc4)o3)cccc2c1 | inconclusive [inhibitor, single point] | –
CN1CCN(C(=O)c2ccc3c(c2)S(=O)(=O)c2ccccc2C3=O)CC1 | – | inactive: 7.85%
COc1ccc(CC(=O)Nc2ccc(C(=O)NC(C)(C)C)cc2)cc1OC | – | inactive: -15.8%
Cc1cc(C)nc(-n2ncc3c2CC(c2ccc(F)cc2)CC3=O)n1 (stereo not drawn) | inconclusive [inhibitor, partial curve, poor fit] | –

SMILES | Potency | activity change, negative = inhibition
CCN(CC)S(=O)(=O)c1ccc(N2CCN(S(=O)(=O)c3ccccc3)CC2)nc1 | inconclusive [inhibitor, partial curve, poor fit] | –
O=S(=O)(c1ccc(F)cc1)N1CCN(C(=S)NCc2ccco2)CC1 | active: 1.47 µM | –
Cn1c(SCc2ccon2)nc2ccccc2c1=O | – | inactive: 0.92%
COc1ccccc1OCC(=O)Nc1cc(C)ccc1NC(=O)c1ccco1 | inconclusive [inhibitor, partial curve, poor fit] | –
CC(C)CNS(=O)(=O)c1cc(C(=O)OCC(=O)N(C)C2CCS(=O)(=O)C2)c(Cl)cc1Cl (stereo not drawn) | inconclusive [inhibitor, single point] | –
Cc1cc2ccccn2c1C(=O)c1cccc([N+](=O)[O-])c1 | – | inactive: -2.84%
Nc1ccc(-c2cc(N)n(-c3ccccc3)n2)cc1 | active: 6.57 µM | –
CN(CC1CCOCC1)C(=O)CC1C(=O)NCCN1Cc1cccc(F)c1 (stereo not drawn) | inconclusive [inhibitor, partial curve, poor fit] | –
O=C(Nc1ccc(Cl)c(S(=O)(=O)N2CCCCC2)c1)c1ccco1 | inconclusive [inhibitor, single point] | –
O=C(c1cc(COc2ccc(F)cc2Cl)on1)N1CCN(C2CCCCC2)C(=O)C1 | – | inactive: -6.69%
O=C(CNC(=O)OCc1ccccc1)Nc1ccc(Br)cc1C(=O)c1ccccc1Cl | inconclusive [inhibitor, partial curve] | –
COc1ccc(C(=O)/C=C/c2ccc(OC3CSC3)cc2)cc1OC | inconclusive [inhibitor, single point] | –
COc1cc(C2Oc3ccccc3C=C2[N+](=O)[O-])cc(OC)c1OC (stereo not drawn) | inconclusive [inhibitor, single point] | –
Cc1ccc(OCC(=O)N(Cc2cccc(Cl)c2)C2CCS(=O)(=O)C2)cc1C (stereo not drawn) | inconclusive [inhibitor, partial curve] | –
CN1CCN(c2cc3c(cc2F)c(=O)c(C(=O)O)cn3-c2ccc(F)cc2)CC1 | inconclusive [inhibitor, partial curve, poor fit] | –
C=CCNC(=O)C1CC2Cn3c(nc4ccccc43)C2N1C (stereo not drawn) | – | inactive: -1.57%
CCn1c(SCC(=O)N2c3ccccc3CCc3ccccc32)nnc1-c1ccc(OC)cc1 | active: 4.15 µM | –
COc1cc(OC)c(OC)cc1/C=C1\CCC/C(=C\c2cc(OC)c(OC)cc2OC)C1=O | inconclusive [inhibitor, partial curve] | –
CS(=O)(=O)N(CC(=O)N1CCCC1)Cc1ccccc1 | inconclusive [inhibitor, single point] | –
CCOc1ccccc1NC(=O)c1ccc(Cl)c(NC(=O)CC(c2ccccc2)c2ccccc2)c1 | inconclusive [inhibitor, partial curve, poor fit] | –
CC(C)(C)OC(=O)NCCCCCc1cn(CC(=O)NCCCCCCCCCCC(=O)N2CCN(C(=O)OC(C)(C)C)CC2)nn1 | inconclusive [inhibitor, partial curve] | –
CCOC(=O)c1c(NC(=O)CN2CCCc3ccccc32)sc(C)c1C | inconclusive [inhibitor, single point] | –
CCN(CC)S(=O)(=O)c1ccc(NC(=O)CSc2nnc(-c3cccc(OC)c3)n2C)cc1 | active: 10.4 µM | –

SMILES | Potency | activity change, negative = inhibition
CC(=O)c1cc2c(cc1NS(=O)(=O)c1ccccc1Br)OCO2 | – | inactive: -9.39%
Cc1cccc(NC(=S)N/N=C/c2cccc([N+](=O)[O-])c2)c1 | inconclusive [inhibitor, single point] | –
Cc1nnc(SCC(=O)N(C(C)C)C(C)C)[nH]c1=O | inconclusive [inhibitor, single point] | –
Cc1cccc2cc(C#N)c(SCC(=O)N3CC(=O)Nc4ccccc43)nc12 | inconclusive [inhibitor, single point] | –
CCC(=O)NC(c1ccccc1)c1c(OC(C)=O)ccc2ccccc12 (stereo not drawn) | inconclusive [inhibitor, partial curve, poor fit] | –
O=C(CN1C2=NCCCN2c2ccccc21)c1cccc(Br)c1 | inconclusive [inhibitor, partial curve, poor fit] | –
COc1ccc2cc3cc(C(=O)Nc4ccc5c(c4)OCO5)oc3nc2c1 | inconclusive [inhibitor, full curve, poor fit] | –
Cc1ccc(C)c(NC(=S)NCCc2ccc(F)cc2)c1 | active: 13.1 µM | –
CC(C)Nc1nnc(SCC(=O)/C=C2\N(C)c3ccccc3C2(C)C)s1 | inconclusive [inhibitor, single point] | –
COc1ccccc1C(=O)NC(=O)COC(=O)CCOc1ccc(C)cc1 | inconclusive [inhibitor, partial curve, poor fit] | –
Cc1c(-c2ccc(Cl)cc2)[n+](=O)c2c(n1[O-])CCCC2 | – | inactive: 35.1%
O=C(Nc1ccccc1)c1cc(S(=O)(=O)N2CCCCC2)ccc1N1CCOCC1 | inconclusive [inhibitor, single point] | –
O=C(CCC(=O)N(CC(=O)NC1CCCCC1)Cc1cccs1)Nc1nccs1 | – | inactive: -4.3%
O=C(Cn1c(SCC(=O)N2CCCc3ccccc32)nc2ccccc21)N1CCCC1 | inconclusive [inhibitor, single point] | –
S=C(Nc1ccc(Br)cc1)Nc1ccc2c(c1)OCCO2 | – | inactive: 94.8%
Cc1[nH]c2c(Cl)cccc2c1CCNC(=O)C1CCCCC1C(=O)OCC(F)(F)F (stereo not drawn) | inconclusive [inhibitor, full curve, poor fit] | –
COc1cc(-c2cc(C(=O)Nc3ccc(S(=O)(=O)Nc4ncccn4)cc3)c3ccccc3n2)cc(OC)c1OC | inconclusive [inhibitor, full curve, poor fit] | –
c1ccc(NCc2ccccn2)cc1 | – | inactive: 22.2%
CCC(=O)NC1=C(Nc2ccc(N)cc2)C(=O)c2ccccc2C1=O | inconclusive [inhibitor, single point] | –
CCN(CC(=O)NCc1ccc(Cl)cc1)C(=O)CSc1ccc(Br)cc1 | inconclusive [inhibitor, partial curve, poor fit] | –
CCOC(=O)c1c(NC(=O)C(Sc2ccccc2)c2ccccc2)sc(C(=O)N(C)C)c1C (stereo not drawn) | active: 3.29 µM | –
O=C(NCc1ccccc1Cl)c1ccc2nc[nH]c2c1 | – | inactive: 18.9%
